Data: the supplement of paper PMC9446081
The whole screen tested about 39,000 compounds, of which about 220 (0.56%) showed activity. Some of the results follow.

These compounds were tested on Escherichia coli K-12 BW25113 (assay: relative growth (OD600 normalised to plate interquartile mean) (fraction); higher = less growth inhibition, active = 0.2 or less). Conditions: 50 µM; LB; incubation time: overnight (16-24 h).
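Note: static incubation at 37 °C against the wild-type strain, values averaged over two biological replicates.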

Structure (SMILES)	relative growth
C[C@H]1CN([C@@H](C)CO)C(=O)Cc2cc(NS(C)(=O)=O)ccc2O[C@@H]1CN(C)Cc1ccc(C(=O)Nc2ccccc2N)cc1	inactive: 1.01
C[C@@H]1CCCCO[C@@H](CN(C)C(=O)Nc2ccc3c(c2)OCO3)[C@@H](C)CN([C@H](C)CO)C(=O)c2cc(NC(=O)c3ccccc3)ccc2O1	inactive: 1.01
COc1ccc(S(=O)(=O)N(C)C[C@H]2Oc3ccc(N(C)C)cc3CC(=O)N([C@H](C)CO)C[C@@H]2C)cc1	inactive: 1.01
C[C@H]1CN([C@@H](C)CO)C(=O)Cc2cc(NS(=O)(=O)c3ccccc3)ccc2O[C@@H]1CN(C)CC1CC1	inactive: 1
C[C@H]1CCCCO[C@@H](CN(C)Cc2ccc3c(c2)OCO3)[C@@H](C)CN([C@@H](C)CO)C(=O)c2cc(NC(=O)Cc3ccccc3)ccc2O1	inactive: 1.01
N#Cc1ccc(-c2cccs2)nc1	inactive: 1
COCC(=O)N1C[C@H](C)[C@@H](OC)CN(C)C(=O)c2ccc(NC(=O)Nc3ccccc3)cc2OC[C@H]1C	inactive: 1
CCS(=O)(=O)NCC[C@H]1CC[C@@H](NC(=O)Cc2ccccn2)[C@H](CO)O1	inactive: 1.02
C[C@H]1CCCCO[C@H](CN(C)CC2CC2)[C@@H](C)CN([C@@H](C)CO)C(=O)c2cc(NC(=O)C3CCCCC3)ccc2O1	inactive: 1
C[C@@H]1CN([C@H](C)CO)C(=O)c2cc(NC(=O)Nc3cccc4ccccc34)ccc2O[C@@H](C)CCCCO[C@H]1CN(C)C(=O)C1CCCCC1	inactive: 1.05
C[C@H]1CCCCO[C@@H](CN(C)Cc2ccc(C(=O)O)cc2)[C@@H](C)CN([C@@H](C)CO)C(=O)c2cc(NC(=O)Nc3ccccc3)ccc2O1	inactive: 1.01
C[C@@H]1CN([C@@H](C)CO)C(=O)c2cc(NC(=O)CCCN(C)C)ccc2O[C@H]1CN(C)S(=O)(=O)c1ccc(Cl)cc1	inactive: 0.983
C[C@H](CO)N1C[C@H](C)[C@@H](CN(C)Cc2ccncc2)OCCCC[C@H](C)Oc2ccc(NC(=O)C3CCCCC3)cc2C1=O	inactive: 1
COc1ccc(CN(C)C[C@@H]2OCCCC[C@@H](C)Oc3ccc(NC(=O)Nc4ccc(F)cc4)cc3C(=O)N([C@@H](C)CO)C[C@H]2C)cc1	inactive: 0.998
C[C@@H]1CN([C@H](C)CO)C(=O)Cc2cc(NS(=O)(=O)c3ccc(Cl)cc3)ccc2O[C@@H]1CN(C)S(C)(=O)=O	inactive: 0.983
C[C@H]1CCCCO[C@@H](CN(C)C(=O)c2ccccc2)[C@@H](C)CN([C@@H](C)CO)C(=O)c2cc(NC(=O)Cc3ccccc3)ccc2O1	inactive: 0.999
C[C@@H]1CN([C@@H](C)CO)C(=O)c2cc(NC(=O)CCCCCC(=O)Nc3ccccc3N)ccc2O[C@@H](C)CCCCO[C@@H]1CN(C)S(=O)(=O)c1ccc(Cl)cc1	inactive: 1.02
C=CC[C@@H](CC(=O)NCCO)C(=O)NC[C@@H](OC(=O)[C@@H](CC=C)CC(=O)OC(C)(C)C)c1ccccc1	inactive: 0.993
C[C@@H]1CN([C@@H](C)CO)C(=O)c2cc(NC(=O)C3CC3)ccc2O[C@@H]1CN(C)S(=O)(=O)c1ccc(Cl)cc1	inactive: 0.984

Structure (SMILES)	relative growth
C[C@H]1CN([C@@H](C)CO)C(=O)Cc2cc(NC(=O)CCCCCC(=O)Nc3ccccc3N)ccc2O[C@H]1CN(C)C(=O)Nc1cccc2ccccc12	inactive: 0.961
COc1ccc(NC(=O)N(C)C[C@H]2OCCCC[C@H](C)Oc3ccc(NC(=O)CCC(F)(F)F)cc3C(=O)N([C@H](C)CO)C[C@@H]2C)cc1	inactive: 1.01
C[C@@H]1CN([C@H](C)CO)C(=O)c2cccc(NC(=O)c3cnccn3)c2O[C@@H]1CN(C)S(=O)(=O)c1ccc(F)cc1	inactive: 1.02
C[C@@H]1CCCCO[C@@H](CN(C)Cc2ccc3c(c2)OCO3)[C@@H](C)CN([C@@H](C)CO)C(=O)c2cc(NC(=O)Nc3ccc4c(c3)OCO4)ccc2O1	inactive: 0.984
C[C@H]1CN([C@@H](C)CO)C(=O)CCCn2nncc2CO[C@H]1CN(C)Cc1ccc2c(c1)OCCN2C	inactive: 1.02
COc1ccc(NC(=O)N(C)C[C@H]2Oc3ccc(NS(C)(=O)=O)cc3C(=O)N([C@H](C)CO)C[C@H]2C)cc1	inactive: 1.03
CSc1[nH]c(=O)[nH]c(=O)c1C#N	inactive: 1.04
C[C@H]1CN([C@@H](C)CO)C(=O)Cc2cc(NC(=O)CCC(F)(F)F)ccc2O[C@@H]1CN(C)S(=O)(=O)c1ccccc1	inactive: 0.992
C[C@H](CO)N1C[C@H](C)[C@H](CN(C)Cc2ccc(-c3ccccc3)cc2)Oc2ccc(NC(=O)NC3CCCCC3)cc2CC1=O	inactive: 1.02
COc1ccc(NC(=O)Nc2ccc3c(c2)C(=O)N([C@@H](C)CO)C[C@@H](C)[C@H](CN(C)C(=O)Nc2ccc(C(F)(F)F)cc2)OCCCC[C@@H](C)O3)cc1	inactive: 1.01
Cc1ccc(S(=O)(=O)N(C)C[C@H]2OCCCC[C@@H](C)Oc3ccc(NS(=O)(=O)c4ccc(F)cc4)cc3C(=O)N([C@H](C)CO)C[C@H]2C)cc1	inactive: 1.02
CO[C@@H](CCO)[C@@H](O)c1ccc(O)c(F)c1	inactive: 1
O=C1c2ccccc2C(=O)C1c1ccc(Cl)cc1	inactive: 1.07
C[C@H](CO)N1C[C@H](C)[C@@H](CN(C)Cc2ccc(C(F)(F)F)cc2)Oc2ccc(NC(=O)Cn3cnnn3)cc2C1=O	inactive: 1.03
O=C(N[C@@H]1C=C[C@@H](CC(=O)N2CCOCC2)O[C@@H]1CO)c1ccccn1	inactive: 0.986
C[C@@H]1CN([C@H](C)CO)C(=O)c2cc(NC(=O)NC3CCCCC3)ccc2O[C@@H]1CN(C)S(C)(=O)=O	inactive: 1.02
Cc1noc(C)c1NC(=O)N(C)C[C@H]1Oc2ccc(NS(=O)(=O)c3c(C)noc3C)cc2C(=O)N([C@H](C)CO)C[C@@H]1C	inactive: 1.01
Cn1cnc(CCNC(=O)C[C@@H]2CC[C@@H]3[C@H](COC[C@H](O)CN3C(=O)Nc3ccc(C(F)(F)F)cc3)O2)c1	inactive: 0.925
